# Data published in PubChem BioAssay AID588342 (National Center for Advancing Translational Sciences (NCATS), 2011).
# “And” between values parts separate entries of the source, which are not always exact repeats. Equal values may be shown once. Among all 360,000 compounds or so, about 25,000 (6.9%) were called active. Inconclusive results, whose numbers are uncertain, are shown with a selection of clear calls. The call rests on the fitted dose curve; in most records, active means well fitted inhibition curve with a large enough effect; inconclusive means small, poorly fitted or top-dose-only effect; inactive means flat fitted curve, though single readings scatter. Where the call is inconclusive, the potency comes from a doubtful curve fit. A structure can be active in one record and inactive in another.
# Target: Luciferin 4-monooxygenase (Photinus pyralis) (UniProt P08659)
# Chain of UniProt P08659 (P08659 whole entry, looked up): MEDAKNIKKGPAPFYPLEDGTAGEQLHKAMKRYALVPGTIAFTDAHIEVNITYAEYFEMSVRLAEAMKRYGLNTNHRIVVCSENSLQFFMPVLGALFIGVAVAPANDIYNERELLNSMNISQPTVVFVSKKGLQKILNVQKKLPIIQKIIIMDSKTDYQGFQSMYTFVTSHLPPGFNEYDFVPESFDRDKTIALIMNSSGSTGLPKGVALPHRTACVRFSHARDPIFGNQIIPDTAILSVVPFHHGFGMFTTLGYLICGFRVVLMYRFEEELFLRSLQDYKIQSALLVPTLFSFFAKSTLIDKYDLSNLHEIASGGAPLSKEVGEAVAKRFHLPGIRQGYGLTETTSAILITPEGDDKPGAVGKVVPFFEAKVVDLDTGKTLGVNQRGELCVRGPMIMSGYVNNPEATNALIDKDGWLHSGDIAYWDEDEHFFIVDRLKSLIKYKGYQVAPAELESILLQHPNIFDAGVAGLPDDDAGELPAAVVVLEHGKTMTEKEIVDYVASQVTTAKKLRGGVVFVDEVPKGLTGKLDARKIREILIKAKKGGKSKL
# Assay: qHTS profiling assay for firefly luciferase inhibitor/activator using purifed enzyme and Km concentrations of substrates (counterscreen for miR-21 project); further: nearly all actives have a fitted effect of over 55% in size
# Conditions: purified FLuc, luminescence inhibition; series mostly up to 57.5 µM
# How it was run: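 Purified P. pyralis luciferase (10nM final) with 10uM D-luciferin and 10uM ATP (Km levels) in 50mM Tris acetate pH 7.5, 10mM Mg acetate, 0.01% Tween-20, 0.05% BSA; qHTS 6-point titration, ~60 µM downward; luminescence read.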
# Potency means the concentration at half of the fitted maximal effect; tags describe the fitted curve by direction and shape.
row,SMILES,Potency
1,CN(CCOc1ccc(C=C2C(=O)NC(=O)NC2=O)cc1)c1ccccn1,"inconclusive: 23.9 µM [inhibitor, single point]"
2,CCCCn1c(O)c(/C=N/NC(=O)c2ccncc2)c(=O)[nH]c1=S,"inconclusive: 21.3 µM [inhibitor, single point]"
3,COc1ccc2c(c1)/C(=C/c1cnc[nH]1)C(=O)N2,"inconclusive: 23.9 µM [inhibitor, partial curve, poor fit]"
4,COc1cc(/C=C2\C(=O)NC(=O)N(c3ccc(C)cc3)C2=O)cc(OC)c1O,"inconclusive: 23.9 µM [inhibitor, single point]"
5,Cc1cc(N2CCOCC2)nc2ccc(NC(=O)CCC(=O)N3CCC4(CC3)OCCO4)cc12,active: 15.1 µM
6,COc1ccc(/C=C/C(=O)c2c(O)n(CCC3=CCCCC3)c(=O)[nH]c2=O)cc1OC,"inconclusive: 21.3 µM [inhibitor, single point]"
7,O=C1NC(=O)N(CCc2ccc(F)cc2)C(=O)/C1=C/c1cccs1,"inconclusive: 6.75 µM [inhibitor, full curve]"
8,O=C(CNS(=O)(=O)c1ccccc1)OCC(=O)c1ccc(OC(=O)c2ccccc2)cc1,"inconclusive: 21.3 µM [inhibitor, partial curve]"
9,CCCCn1c(N)c(C(=O)NCc2cccs2)c2nc3ccccc3nc21,inactive
10,Cc1ccc(NC(=S)NCC2CCCO2)cc1 (configuration not stated),"inconclusive: 23.9 µM [inhibitor, partial curve]"
11,CSc1cccc(NC(=O)C2CCN(C(=O)c3cnn(-c4ccccc4)c3-n3cccc3)CC2)c1,"inconclusive: 13.5 µM [inhibitor, partial curve, poor fit]"
12,CC(C)(C)c1ccc(S(=O)(=O)Nc2ccc(O)c(Sc3nc4ccccc4s3)c2)cc1,"inconclusive: 21.3 µM [inhibitor, partial curve]"
13,Cc1ccccc1-c1nc(CN2C(=O)CN=C(c3ccccc3)c3ccccc32)c(C)o1,"inconclusive: 15.1 µM [inhibitor, partial curve, poor fit]"
14,O=C1NC(=O)C(=Cc2ccccc2OCCOc2ccc([N+](=O)[O-])cc2)C(=O)N1,"inconclusive: 21.3 µM [inhibitor, partial curve]"
15,O=C(C1CC(c2ccc(Cl)c(Cl)c2)=NO1)N1CCC2(CC1)OCCO2 (configuration not stated),active: 15.1 µM
16,O=C1NC(=O)N(c2ccccc2)C(=O)/C1=C\c1ccc([N+](=O)[O-])o1,"inconclusive: 26.9 µM [inhibitor, single point]"
17,CCN1CCN(/C=N/c2nc(C)cs2)CC1,"inconclusive: 23.9 µM [inhibitor, single point]"
18,O=C(c1ccc(-c2ccccc2)c(F)c1)C1CCCN(CCO)C1 (configuration not stated),"inconclusive: 37.9 µM [inhibitor, single point]"
19,O=C1NC(=O)N(Cc2ccc(F)cc2)C(=O)/C1=C\c1ccc([N+](=O)[O-])s1,"inconclusive: 26.9 µM [inhibitor, partial curve, poor fit]"
20,CN(C)C(=O)Oc1ccc(Br)cc1C(=O)Nc1ccc(F)c(Cl)c1,"inconclusive: 42.6 µM [inhibitor, partial curve, poor fit]"
21,O=C(OCC(=O)c1ccc([N+](=O)[O-])cc1)/C(=C\c1ccc(Cl)cc1)NC(=O)c1ccccc1,"inconclusive: 30.1 µM [inhibitor, partial curve, poor fit]"

row,SMILES,Potency
1,O=C1C2CCN(CC2)[C@@H]1Cc1ccc2ccccc2c1O,"inconclusive: 26.9 µM [inhibitor, partial curve]"
2,CCN(CCO)c1ccc(N=Cc2c(O)n(C)c(=S)[nH]c2=O)cc1,active: 1.69 µM
3,CCC1(C)OC(c2ccccc2)=C/C(=C/C=C2C(=O)NC(=O)NC2=O)O1 (configuration not stated),"inconclusive: 26.9 µM [inhibitor, partial curve, poor fit]"
4,O=C(Nc1ccc(-c2nc3ccccc3c(=O)o2)cc1)c1ccco1,"inconclusive: 10.7 µM [inhibitor, partial curve]"
5,COc1ccc(Nc2c(-c3cc(Br)ccc3O)nc3ncccn23)cc1OC,"inconclusive: 16.9 µM [inhibitor, partial curve, poor fit]"
6,COc1ccccc1C1SCC(=O)Nc2c1c(C)nn2-c1cccc(C)c1 (configuration not stated),"inconclusive: 26.9 µM [inhibitor, partial curve, poor fit]"
7,O=C(O)Cn1cc(/C=C2\C(=O)NC(=O)N(c3ccc(Br)cc3)C2=O)c2ccccc21,"inconclusive: 26.9 µM [inhibitor, single point]"
8,COc1ccc(Cc2nccc3cc(OC)c(OC)cc23)cc1OC,inactive
9,COc1cccc(NC(=O)c2cccn(Cc3ccccc3C)c2=O)c1,"inconclusive: 23.9 µM [inhibitor, partial curve]"
10,CCC(=O)N1CC(=O)Nc2ccc(Cl)cc2C1c1ccc(F)cc1 (configuration not stated),"inconclusive: 8.49 µM [inhibitor, partial curve, poor fit]"
11,Cc1ccc(Cn2cccc(C(=O)Nc3ccc4c(c3)OCCO4)c2=O)cc1,active: 8.49 µM
12,c1ccc(-c2ccc(-c3[nH]ncc3CN3CCC(N4CCSCC4)CC3)cc2)cc1,"inconclusive: 30.1 µM [inhibitor, single point]"
13,COc1ccc(N2C(=O)NC(=O)/C(=C/c3ccc(N4CCOCC4)cc3)C2=O)cc1,"inconclusive: 26.9 µM [inhibitor, single point]"
14,CCN1/C(=C\C=C\C2=[N+](CC)c3ccccc3C2(C)C)C(C)(C)c2ccccc21,"inconclusive: 13.5 µM [inhibitor, partial curve]"
15,Cc1ccc(CNc2cc(C)nc3nc(-c4ccc(C)cc4)nn23)cc1,"inconclusive: 0.478 µM [inhibitor, full curve, poor fit]"
16,O=[As](O)(O)c1ccc(N=Nc2ccc(O)cc2)cc1,active: 13.5 µM
17,CCOC(=O)c1cc2c(cn1)[nH]c1ccccc12,active: 15.1 µM
18,COc1ccccc1NC(=O)Oc1cccc(OC(=O)c2ccccc2)c1,"inconclusive: 23.9 µM [inhibitor, partial curve]"
19,Clc1ccc(OCC#CCN2CCCC2)cc1,"inconclusive: 37.9 µM [inhibitor, partial curve, poor fit]"
20,O=C1NC(=O)C(=Cc2coc3ccccc3c2=O)C(=O)N1,"inconclusive: 21.3 µM [inhibitor, partial curve, poor fit]"
21,Clc1ccc(OCC#CCN2CCCCCC2)cc1,"inconclusive: 37.9 µM [inhibitor, partial curve, poor fit]"

row,SMILES,Potency
1,O=C(Nc1cccc2ccccc12)N1CCC2(CC1)OCCO2,"inconclusive: 30.1 µM [inhibitor, partial curve, poor fit]"
2,O=C(Nc1ccccc1C(=O)N/N=C/c1ccco1)c1ccccc1Cl,"inconclusive: 33.8 µM [inhibitor, partial curve, poor fit]"
3,COc1ccc(CCNc2nccn(-c3ccc(C)c(C)c3)c2=O)cc1OC,"inconclusive: 37.9 µM [inhibitor, partial curve, poor fit]"
4,C/C(=C\C(=O)c1ccc(Br)cc1)NCc1ccccc1,active: 23.9 µM
5,CN(C)c1ccc(NC(=O)c2sc3nc4c(cc3c2N)N2CCC4CC2)cc1,inactive
6,Cc1c(C(c2ccc(Br)cc2)c2c(O)c3ccccc3oc2=O)c(=O)n(-c2ccccc2)n1C (configuration not stated),active: 15.1 µM and active: 12 µM
7,O=C(Cn1cc(C(=O)c2ccccc2)c2ccccc21)NCc1ccco1,"inconclusive: 21.3 µM [inhibitor, partial curve, poor fit]"
8,S=c1[nH]nc(-c2ccn[nH]2)n1-c1ccccc1Cl,"inconclusive: 37.9 µM [inhibitor, single point]"
9,COc1ccc(S(=O)(=O)NCCc2sc3nc(-c4ccc(C)cc4)nn3c2C)cc1F,"inconclusive: 37.9 µM [inhibitor, partial curve, poor fit]"
10,Cc1c(OCC(F)(F)F)ccnc1CS(=O)c1nc2ccccc2[nH]1 (configuration not stated),inactive and active: 13.5 µM
11,Cc1ccc(N2C(=O)NC(=O)/C(=C/c3ccc(OC(=O)c4cccs4)cc3)C2=O)cc1,"inconclusive: 37.9 µM [inhibitor, partial curve, poor fit]"
12,N#CCCn1cc(C=C2C(=O)NC(=O)NC2=O)c(-c2ccccc2)n1,"inconclusive: 16.9 µM [inhibitor, partial curve]"
13,C=CCn1c(O)c(/C(C)=N/NC(=S)Nc2ccccc2)c(=O)[nH]c1=O,"inconclusive: 23.9 µM [inhibitor, partial curve]"
14,O=C1NC(=O)N(CCc2ccc(F)cc2)C(=O)/C1=C/c1ccco1,"inconclusive: 8.49 µM [inhibitor, partial curve]"
15,CC(C)(C)n1cc(C(=O)c2ccccc2)cc1-c1ccccc1,"inconclusive: 37.9 µM [inhibitor, partial curve, poor fit]"
16,CC1(C)OC(c2ccccc2)=C/C(=C/C=C2C(=O)NC(=S)NC2=O)O1,"inconclusive: 15.1 µM [inhibitor, partial curve]"
17,O=C(Oc1ccc2c(c1)CCC2)N1CCOCC1,"inconclusive: 19 µM [inhibitor, single point]"
18,CC(Cc1ccccc1)N1C(=O)c2ccccc2C1=O (configuration not stated),"inconclusive: 33.8 µM [inhibitor, partial curve, poor fit]"
19,c1csc(-c2nnc(COc3ccc4c(c3)OCO4)o2)c1,active: 19 µM
20,O=c1[nH]c(=S)n(-c2ccc(F)cc2)c(O)c1/C=N/N1CCOCC1,inactive
